Assay results published in PubChem BioAssay AID1476 (National Center for Advancing Translational Sciences (NCATS), 2009).
The campaign covered roughly 200,000 compounds. About 4,500 (2.2%) were called active. Inconclusive results, whose numbers are uncertain, are shown with a selection of clear calls. The call rests on the fitted dose curve; in most records, active means well fitted inhibition curve with a large enough effect; inconclusive means small, poorly fitted or top-dose-only effect, or effect the other way; inactive means flat fitted curve, though single readings scatter. A potency beside an inconclusive call is a rough fit, not a confirmed value.

target: Cruzipain (Trypanosoma cruzi) (UniProt P25779); assay: qHTS Assay for Promiscuous and Specific Inhibitors of Cruzain (without detergent); settings: purified cruzain, Z-FR-AMC fluorescence, no detergent; further: nearly all actives have a fitted effect of over 40% in size;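 on max response, negative = inhibition: plate controls were enzyme without inhibitor for no effect and buffer without enzyme for full effect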
Procedure, shortened: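 Detergent-free condition (0.00005% Triton X-100) in acetate buffer pH 5.5 with DTT. 1.5 nM enzyme and compound were pre-mixed 15 min, then 2 uM Z-FR-AMC substrate added; reaction progress from fluorescence change between first and third reads (60 s).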
Potency means the concentration at half of the fitted maximal effect; tags describe the fitted curve by direction and shape.

UniProt P25779, sequence (P25779 whole entry, looked up): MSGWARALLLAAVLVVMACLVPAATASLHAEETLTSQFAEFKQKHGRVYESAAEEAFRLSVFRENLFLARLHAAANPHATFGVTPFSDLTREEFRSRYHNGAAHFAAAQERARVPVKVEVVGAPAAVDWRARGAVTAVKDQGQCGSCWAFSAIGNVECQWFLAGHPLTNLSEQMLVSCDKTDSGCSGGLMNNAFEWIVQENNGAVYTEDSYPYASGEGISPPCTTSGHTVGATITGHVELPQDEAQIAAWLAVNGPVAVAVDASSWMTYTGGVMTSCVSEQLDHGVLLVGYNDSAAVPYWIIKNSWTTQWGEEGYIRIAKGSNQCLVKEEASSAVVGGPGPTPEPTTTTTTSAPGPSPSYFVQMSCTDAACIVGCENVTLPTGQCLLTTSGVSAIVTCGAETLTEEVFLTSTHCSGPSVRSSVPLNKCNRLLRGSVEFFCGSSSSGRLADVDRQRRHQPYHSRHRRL

| Structure (SMILES) | Potency | max response, negative = inhibition |
| --- | --- | --- |
| COc1ccccc1C(=O)NC(=S)Nc1ccc(NC(=O)c2cccs2)cc1 | inconclusive: 39.8 µM [inhibitor, single point] | – |
| C[n+]1c2cc(N)ccc2cc2ccc(N)cc21 | inconclusive: 25.1 µM [inhibitor, single point] | – |
| Cc1nc2ccccn2c(=O)c1NC(=O)c1ccccc1Cl | – | inactive: 1.81% |
| COc1cc2c(C(=O)N3CCN(c4ccc(C)cc4)C(C)C3)cn(CC(C)C)c(=O)c2cc1OC (configuration not stated) | inconclusive: 39.8 µM [activator, single point] | – |
| O=C(c1cc(C(=O)NCCc2ccccc2)c(=O)n(CCc2ccccc2)c1)c1cc(Cl)ccc1O | inconclusive: 31.6 µM [inhibitor, single point] | – |
| O=C(COc1ncnc2c(Cl)cc(Cl)cc12)Nc1cc([N+](=O)[O-])ccc1Cl | inconclusive: 39.8 µM [inhibitor, single point] | – |
| COc1ccc2nc(SCC(=O)NCc3ccc4c(c3)OCO4)[nH]c2c1 | inconclusive: 25.1 µM [inhibitor, single point] | – |
| O=C(/C=C/c1ccccc1)NNC(=O)c1cccc(Cl)c1 | inconclusive: 39.8 µM [inhibitor, single point] | – |
| COCCN(CCOC)S(=O)(=O)c1ccc(C(=O)Nc2sc3c(c2C(N)=O)CCCCC3)cc1 | inconclusive: 10 µM [activator, partial curve] | – |
| COc1cccc(NC(=O)CCc2nc(-c3cc(OC)c(OC)c(OC)c3)no2)c1 | inconclusive: 39.8 µM [activator, single point] | – |
| Cc1cc(C)nc(SCC(=O)Nc2ncc(Cc3cccc(Cl)c3)s2)n1 | inconclusive: 31.6 µM [inhibitor, single point] | – |
| Cn1c(=O)n(Cc2ccccc2)c(=O)c2c1nc1n2CCCN1CCc1ccccc1 | inconclusive: 31.6 µM [activator, single point] | – |
| Cn1c(-c2ccc(-c3ccccc3)cc2)c[nH]c1=S | active: 10 µM | – |
| Cc1ccccc1NCC(=O)N/N=C\C=C\c1cccc([N+](=O)[O-])c1 | inconclusive: 31.6 µM [inhibitor, single point] | – |
| S=C(Nc1ccc(Oc2ccc(NC(=S)NC3CCCCC3)cc2)cc1)NC1CCCCC1 | active: 3.98 µM | – |
| O=C(N/N=C/c1cccc(OC2CSC2)c1)c1ccccc1O | active: 10 µM | – |
| CC(CCc1ccccc1)NC(=O)COC(=O)c1cc(NS(=O)(=O)c2ccc(Cl)c([N+](=O)[O-])c2)ccc1O (configuration not stated) | inconclusive: 39.8 µM [inhibitor, single point] | – |
| Cc1ccc(CNC(=O)CCc2c(C)nn(-c3ccc(N4CCCC4)nn3)c2C)cc1 | – | inactive: -1.47% |
| CCc1cccc(C)c1Nc1c(-c2cccc(O)c2)nc2cnccn12 | – | inactive: 2.99% |
| COc1cc(OC)c(C2=NOC(C(=O)N3CCc4ccccc4C3)C2)cc1Cl (configuration not stated) | inconclusive: 39.8 µM [activator, single point] | – |
| COc1ccc(/C=C/c2nc(C#N)c(NC3CCCCC3)o2)cc1OC | inconclusive: 39.8 µM [activator, single point] | – |
| O=S(=O)(c1ccc(Oc2ccc(Cl)cc2)c(S(=O)(=O)N2CCCCC2)c1)N1CCCCC1 | inconclusive: 39.8 µM [inhibitor, single point] | – |
| Cc1cccc(N2CCN(C(=O)c3cc4c(=O)n(C)c5ccccc5c4s3)CC2)c1C | – | inactive: -1.82% |

| Structure (SMILES) | Potency | max response, negative = inhibition |
| --- | --- | --- |
| COc1cc(C(=O)Nc2ccc(NC(=O)c3ccc(Br)cc3)cc2)cc(OC)c1OC | – | inactive: 12.3% |
| Nc1ncnc2c1nc(-c1ccccc1)n2[C@H]1O[C@@H](CO)[C@@H](O)[C@H]1O | – | inactive: 2.95% |
| CCc1ccc(/C=C2\Oc3cc(OC(=O)N4CCOCC4)ccc3C2=O)cc1 | inconclusive: 31.6 µM [activator, single point] | – |
| CCOc1ccc(NC(=O)Cn2cc(C(=O)c3ccc(C)c(C)c3)c(=O)c3cc(OC)c(OC)cc32)cc1 | inconclusive: 1 µM [inhibitor, single point] | – |
| CCOc1ccc(NC(=O)C(=O)NCCc2csc3nc(-c4ccccc4F)nn23)cc1 | – | inactive: -1.02% |
| COC(=O)c1ccc(Cl)cc1NC(=O)N(C)CCc1c(C)nn(C)c1C | – | inactive: -3.51% |
| O=C(N/N=C/c1cccc(F)c1)c1c(O)c2c([nH]c1=O)CCCC2 | active: 20 µM | – |
| Cc1nn(-c2ccccc2)c(N)c1N=Nc1ccc2ccccc2c1 | inconclusive: 6.31 µM [inhibitor, partial curve] | – |
| O=C(COC(=O)C1CCN(S(=O)(=O)c2cccs2)CC1)c1cc2ccccc2o1 | inconclusive: 3.98 µM [inhibitor, single point] | – |
| CCc1ccc(NC(=O)C(=O)NCC(c2cccnc2)N2CCN(C)CC2)cc1 (configuration not stated) | inconclusive: 10 µM [activator, partial curve] | – |
| Cn1ccc2c(OCC(=O)NCc3ccccc3Cl)cccc2c1=O | – | inactive: -4.7% |
| CCOc1ccc2[nH]c(=O)c(CN(Cc3nnnn3Cc3ccccc3)CC3CCCO3)cc2c1 (configuration not stated) | inconclusive: 31.6 µM [activator, single point] | – |
| COc1cccc(CNC(=O)Cc2c(C)c3c(cc(C)c4c(C)coc43)oc2=O)c1 | – | inactive: 7.38% |
| CCCCOc1ccc(-c2ncc(Cl)cn2)cc1 | inconclusive: 31.6 µM [inhibitor, single point] | – |
| CCn1ccc2cc(S(=O)(=O)N3CCCN(C(=O)Nc4cc(Cl)ccc4C)CC3)ccc21 | inconclusive: 39.8 µM [inhibitor, single point] | – |
| Cc1nc2ccc(Nc3nc4cc(S(=O)(=O)N5CCOCC5)ccc4o3)cc2s1 | inconclusive: 31.6 µM [activator, single point] | – |
| O=C(Nc1nc(-c2ccccc2)c(-c2ccccc2)s1)c1ccc(S(=O)(=O)N2CCCC2)cc1 | inconclusive: 7.94 µM [inhibitor, full curve, poor fit] | – |
| COc1ccc(NC(=O)/C(C#N)=C\c2cc(C)n(-c3ccc(Oc4ccc([N+](=O)[O-])cn4)cc3)c2C)cc1 | active: 7.94 µM | – |
| COc1ccc(Cl)cc1-c1nc(-c2ccc(Br)o2)no1 | active: 7.94 µM | – |
| COc1ccc(-c2noc(-c3ccc(NCCc4ccccc4)c([N+](=O)[O-])c3)n2)cc1OC | inconclusive: 39.8 µM [inhibitor, single point] | – |
| Cc1cc(C(C)(C)C)c(OCCCN2CCOCC2)c(C(C)(C)C)c1 | – | inactive: 5.26% |
| N=c1c(C(=O)NCc2ccc(F)cc2)cc2c(=O)n3ccccc3nc2n1Cc1cccnc1 | inconclusive: 39.8 µM [inhibitor, single point] | – |
| O=C(NCc1ccccc1)c1ccc2nc(-c3ccco3)c(-c3ccco3)nc2c1 | active: 7.94 µM | – |

| Structure (SMILES) | Potency | max response, negative = inhibition |
| --- | --- | --- |
| O=C(Nc1cccc(S(=O)(=O)Nc2ccccc2Cl)c1)c1ccc(N2CCCC2)c([N+](=O)[O-])c1 | active: 10 µM | – |
| COc1cccc(N(C(=O)c2ccco2)c2nc(-c3sc(NC(=O)c4ccco4)nc3C)cs2)c1 | inconclusive: 31.6 µM [inhibitor, single point] | – |
| CC1CCc2c(sc(NC(=O)COC(=O)c3ccccc3NCc3ccco3)c2C#N)C1 (configuration not stated) | active: 15.8 µM | – |
| COc1ccc2c(c1)-c1nc(NC(=O)c3ccc(C)cc3)sc1CC2 | inconclusive: 39.8 µM [inhibitor, single point] | – |
| Cc1ccc(-c2nc(CS(=O)(=O)CC(=O)N3CC(C)CC(C)C3)c(C)o2)cc1 (configuration not stated) | inconclusive: 25.1 µM [activator, single point] | – |
| O=C(COC(=O)CCc1c[nH]c2ccccc12)NCc1ccccc1 | – | inactive: 1.66% |
| CCOc1ccc(-c2cc(NC(=O)c3ccc(C)cc3)c(C(=O)OC)s2)cc1 | – | inactive: 1.95% |
| CCOC(=O)C(Cc1ccc(O)cc1)NC(=O)CNC(=O)C(CC(C)C)NC(=O)OC(C)(C)C (configuration not stated) | active: 10 µM | – |
| CNc1oc(Cc2ccccc2)nc1S(=O)(=O)c1ccc(Cl)cc1 | active: 10 µM | – |
| CC(C)C[C@H](NC(=O)OC(C)(C)C)C(=O)N/N=C/c1ccc2nccnc2c1 | inconclusive: 39.8 µM [activator, single point] | – |
| CSc1nc2sc3c(c2c(=O)[nH]1)CCC(C)C3 (configuration not stated) | inconclusive: 31.6 µM [inhibitor, single point] | – |
| BrC/C=C/CBr | – | inactive: 0.0852% |
| Nc1ccc(N2CCN(c3cccc(Cl)c3)CC2)cc1 | active: 15.8 µM | – |
| CCOCCCn1c(SCC(=O)Nc2cccc(OC)c2)nc2ccccc2c1=O | inconclusive: 39.8 µM [activator, single point] | – |
| CCOc1ccccc1CNC(=O)c1cnc2sc(N3CCCC3)nn2c1=O | – | inactive: -1.48% |
| COc1ccccc1NC(=O)C1CCN(S(=O)(=O)c2ccc3c(c2)oc(=O)n3C)CC1 | – | inactive: 0.477% |
| Cc1cccc(N2CCN(C(=O)C3CCN(S(=O)(=O)c4cn(C)cn4)CC3)CC2)c1C | inconclusive: 39.8 µM [activator, single point] | – |
| CCCNc1nc(NCc2ccccc2OC)c2cnn(C)c2n1 | – | inactive: -0.795% |
| C=C(C)COc1ccc2c(C)c(CC(=O)OC)c(=O)oc2c1C | inconclusive: 31.6 µM [activator, single point] | – |
| Cc1cccc(CN2C(=O)CC(c3ccc(Cl)cc3)c3c(C)nn(-c4nc(C)cc(C)n4)c32)c1 (configuration not stated) | inconclusive: 12.6 µM [activator, partial curve] | – |
| CCCCCn1c(=O)[nH]c2cc(C(=O)NCc3ccc(OC)cc3)ccc2c1=O | – | inactive: 0.0165% |
